B1: GRAB-ACh-Cter580: M3R with linkers and cpEGFP inserted after position 580 of C-terminus, Gq20 and export sequences, SEQ ID NO: 17 (protein)
chain: METDTLLLWVLLLWVPGSTGDTSLYKKVGTTLHNNSTTSPLFPNISSSWIHSPSDAGLPPGTVTHFGSYNVSRAAGNFSSPDGTTDDPLGGHTVWQVVFIAFLTGILALVTIIGNILVIVSFKVNKQLKTVNNYFLLSLACADLIIGVISMNLFTTYIIMNRWALGNLACDLWLAIDYVASNASVMNLLVISFDRYFSITRPLTYRAKRTTKRAGVMIGLAWVISFVLWAPAILFWQYFVGKRTVPPGECFIQFLSEPTITFGTAIAAFYMPVTIMTILYWRVFQEAKRQLQKIDKSEGRFHVQNLSQVEQDGRTGHGLRRSSKFCLKEHKALKTLSAILLAFIITWTPYNIMVLVNTFCDSCIPKTFWNLGYWLCYINSTVNPVCYALCNKTFRTTFKMLLLCQCDKKKRRKQQYQQRQSVIGGNVYIKADKQKNGIKANFHIRHNIEDGGVQLAYHYQQNTPIGDGPVLLPDNHYLSVQSKLSKDPNEKRDHMVLLEFVTAAGITLGMDELYKGGTGGSMVRKGEELFTGVVPILVELDGDVNGHKFSVSGEGEGDATYGKLTLKFICTTGKLPVPWPTLVTTLTYGVQCFSRYPDHMKQHDFFKSAMPEGYIQERTIFFKDDGNYKTRAEVKFEGDTLVNRIELKGIDFKEDGNILGHKLEYNGGAAAFHKRAPEQALVFAAVKDTILQLNLKEYNLVKSRITSEGEYIPLDQIDINVNSFCYENEVALT
modifications: GRAB-ACh-Cter580
B2: GRAB-His-Cter580: GRAB-ACh-Cter580 C-terminus from C1 site inserted after 483 L of HRH1, SEQ ID NO: 19 (protein)
chain: METDTLLLWVLLLWVPGSTGDTSLYKKVGTSLPNSSCLLEDKMCEGNKTTMASPQLMPLVVVLSTICLVTVGLNLLVLYAVRSERKLHTVGNLYIVSLSVADLIVGAVVMPMNILYLLMSKWSLGRPLCLFWLSMDYVASTASIFSVFILCIDRYRSVQQPLRYLKYRTKTRASATILGAWFLSFLWVIPILGWNHFMQQTSVRREDKCETDFYDVTWFKVMTAIINFYLPTLLMLWFYAKIYKAVRQHCQHRELINRSLPSFSEIKLRPENPKGDAKKPGKESPWEVLKRKPKDAGGGSVLKSPSQTPKEMKSPVVFSQEDDREVDKLYCFPLDIEHMQAAAEGSSRDYVAVNRSHGQLKTDEQGLNTHGASEISEDQMLGDSQSFSRTDSDTTTETAPGKGKLRSGSNTGLDYIKFTWKRLRSHSRQYVSGLHMNRERKAAKQLGFIMAAFILCWIPYFIFFMVIAFCKNCCNEHLHMFTIWLGYINSTLNPLIYPLCNENFKKTFKRILKRRKQQYQQRQSVIGGNVYIKADKQKNGIKANFHIRHNIEDGGVQLAYHYQQNTPIGDGPVLLPDNHYLSVQSKLSKDPNEKRDHMVLLEFVTAAGITLGMDELYKGGTGGSMVRKGEELFTGVVPILVELDGDVNGHKFSVSGEGEGDATYGKLTLKFICTTGKLPVPWPTLVTTLTYGVQCFSRYPDHMKQHDFFKSAMPEGYIQERTIFFKDDGNYKTRAEVKFEGDTLVNRIELKGIDFKEDGNILGHKLEYNGGAAAFHKRAPEQALVFAAVKDTILQLNLKEYNLVKSRITSEGEYIPLDQIDINVNSFCYENEVALT
modifications: GRAB-His-Cter580

Test system: G protein-coupled receptor (M3R, HRH1, OxtR, DRD2, B2AR, HTR4)
Test: GRAB sensors with fluorescent protein at the GPCR C-terminus, perfusion with receptor agonists in HEK293T cells
Type: cell-based, human
Text: Based on the previously constructed acetylcholine fluorescent sensor GRAB-ACh2.0, the portion of the polypeptide linkers and cpEGFP in the third intracellular loop was inserted after the position 580 of the C-terminus sequence of the human muscarinic acetylcholine receptor M3R protein, and Gq20 peptide segment and TS and ER export sequences were connected to the end of the M3R protein to obtain a fusion peptide acetylcholine sensor GRAB-ACh-Cter580 with a fluorescent protein fused at the C-terminus.
Next, the method of constructing a chimeric receptor was used to construct fusion polypeptide sensors with a fluorescent protein at the C-terminus of different G protein-coupled receptors. The three sites, K567, R568 and R569, at the C-terminus of GRAB-ACh-Cter580 were selected as the cutting sites and labeled as C1, C2 and C3, respectively. After cutting, the multiple C-terminus sequences containing fluorescent protein were fused to HRH1 (SEQ ID NO: 27), OxtR (SEQ ID NO: 29), DRD2, B2AR, and HTR4 (SEQ ID NO: 28) at specific positions, respectively. Changes in signal generated by these fusion polypeptides in perfusion experiments with corresponding receptor agonists were observed.

Row | Molecule | ΔF/F0 fluorescence response (ACh (100 μM)) [%] | change in fluorescence signal (1 mM Histamine) [%]
1 | B1 | ~40 | 
2 | B2 |  | 20
